Hit rate of the full screen: of about 310,000 compounds, about 14,000 (4.5%) showed an effect of 50% or more. Effects have a minus sign here. This is one part of the list.
Molecular target: human ether-à-go-go-related gene (hERG) potassium channel (human, UniProt Q12809)
Assay: primary screen, population patch clamp on CHO cells stably expressing hERG
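Also: peak tail current of the secondary pulse compared with the same well before compound.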

Chain of human ether-à-go-go-related gene (hERG) potassium channel (Q12809 whole entry, looked up): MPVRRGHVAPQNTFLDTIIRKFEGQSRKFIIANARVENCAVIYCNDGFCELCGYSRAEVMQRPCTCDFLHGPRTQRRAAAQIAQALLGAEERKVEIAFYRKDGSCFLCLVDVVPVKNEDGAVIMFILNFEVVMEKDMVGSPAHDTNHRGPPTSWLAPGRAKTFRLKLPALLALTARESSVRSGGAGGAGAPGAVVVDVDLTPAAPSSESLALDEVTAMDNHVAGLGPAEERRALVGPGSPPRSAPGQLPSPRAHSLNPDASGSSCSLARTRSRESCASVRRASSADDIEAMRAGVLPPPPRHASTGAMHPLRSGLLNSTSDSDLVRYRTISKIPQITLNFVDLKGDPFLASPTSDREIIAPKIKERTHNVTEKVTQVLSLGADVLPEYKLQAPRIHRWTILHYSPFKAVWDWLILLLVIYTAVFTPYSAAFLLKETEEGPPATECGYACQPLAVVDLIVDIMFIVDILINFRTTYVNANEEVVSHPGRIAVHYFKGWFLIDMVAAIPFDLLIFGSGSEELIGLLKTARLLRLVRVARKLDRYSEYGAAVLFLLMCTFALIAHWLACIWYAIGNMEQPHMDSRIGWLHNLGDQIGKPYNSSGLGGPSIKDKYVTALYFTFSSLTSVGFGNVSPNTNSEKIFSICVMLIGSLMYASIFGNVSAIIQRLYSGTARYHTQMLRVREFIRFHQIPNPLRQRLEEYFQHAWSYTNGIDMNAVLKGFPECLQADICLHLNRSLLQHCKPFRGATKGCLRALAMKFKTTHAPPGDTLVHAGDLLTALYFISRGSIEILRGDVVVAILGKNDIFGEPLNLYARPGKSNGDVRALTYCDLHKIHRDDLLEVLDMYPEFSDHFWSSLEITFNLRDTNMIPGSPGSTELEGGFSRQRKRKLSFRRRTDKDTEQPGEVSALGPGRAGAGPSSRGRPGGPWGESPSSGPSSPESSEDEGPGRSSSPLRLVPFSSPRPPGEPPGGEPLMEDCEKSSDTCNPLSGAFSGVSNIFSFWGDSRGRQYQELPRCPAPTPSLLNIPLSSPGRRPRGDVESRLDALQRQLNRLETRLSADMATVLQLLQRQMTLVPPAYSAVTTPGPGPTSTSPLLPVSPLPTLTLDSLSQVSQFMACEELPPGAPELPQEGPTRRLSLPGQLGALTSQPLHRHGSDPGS

Point of comparison: `O=C(c1ccc(O)c(Cl)c1)N1CCN(S(=O)(=O)c2ccccc2)CC1`, “hERG current change (%, negative = inhibition) at 10uM” value 10.6%. Against it:
- CCOc1cc(/C=N/NC(=O)C(C)Sc2ccccn2)ccc1O (centres unmarked) — lower, -1.63%
- CCCCCSc1nnc2c(n1)OC(c1cccn1C)N(C(C)=O)c1ccccc1-2 (centres unmarked) — lower, -9.38%
- NS(=O)(=O)c1ccc(NC(=O)c2cc(-c3cccs3)nc3ccccc23)cc1 — lower, -2.93%
- Cc1ccc(SCCC(=O)OC(C)C(=O)Nc2ccccc2)cc1 (centres unmarked) — lower, -13.8%
- Cc1noc(C)c1CSCC(=O)N(CC(C)C)c1c(N)n(Cc2ccccc2)c(=O)[nH]c1=O — lower, -3.26%
- Cn1nnc2c(sc3nc(N4CCOCC4)c4c(c32)CCCC4)c1=O — lower, -2.99%
- CC(=O)Nc1c(F)cc(Br)cc1F — higher, 21.6%
- N#Cc1cccnc1N1CCN(C(=O)c2ccc3c(c2)S(=O)(=O)c2ccccc2C3=O)CC1 — lower, -22.7%
- CC(C)C[C@H](N)c1nnc(SCC(=O)Nc2ccc(Br)cc2)o1 — lower, -4.09%
- Cn1c(O)c(C(c2ccccn2)c2c(O)n(C)c(=S)[nH]c2=O)c(=O)[nH]c1=S — lower, -3.28%
- O=C1c2ccccc2NC(c2cccc([N+](=O)[O-])c2)N1O (centres unmarked) — lower, 4.72%
- O=C1CC(N2CCC(c3nc4ccccc4o3)CC2)C(=O)N1Cc1cccs1 (centres unmarked) — lower, -30.9%
- O=Cc1cn(CC(=O)N2CCOCC2)c2ccccc12 — lower, -1.04%
- O=C(COC(=O)c1ccc(NS(=O)(=O)c2ccc(Br)s2)cc1)NC1CCCC1 — lower, -4.82%
- COc1ccc(CCNC(=O)CN2C(=O)NC(CCSC)C2=O)cc1 (centres unmarked) — higher, 14%
- CN(c1ccc(C(=O)Nc2ccc(F)cc2F)cc1)S(=O)(=O)c1ccccc1 — lower, -13.9%
- COC(=O)CCC(=O)NC1CC(C)(C)Cc2c1cnn2-c1ccccc1 (centres unmarked) — lower, -12%
- CN=C1SC(CC(=O)Nc2sc(C)c(C)c2C(=O)OC)C(=O)N1C (centres unmarked) — lower, -8.67%
- CN(C)c1cc(-c2ccc(Cl)c(Cl)c2)oc(=O)c1Cl — higher, 12.7%
- COc1cccc(/C=C2\SC(=S)N(CC(=O)N(C)C3CCS(=O)(=O)C3)C2=O)c1 (centres unmarked) — lower, 1.18%
- COC(=O)c1c(NC(=O)c2ccccc2OC)sc(C(=O)N2CCOCC2)c1C — lower, -10.2%
- CCN(CC)S(=O)(=O)c1cc(C(=O)OCC(=O)Nc2cccc(S(=O)(=O)N(C)C)c2)ccc1F — lower, 6.73%
- O=C(Nc1ccc2c(c1)OCCO2)C1CCN(C(=O)c2ccc(Br)cc2)CC1 — lower, -52.7%
- CC1CCCCN1S(=O)(=O)c1ccc(C(=O)Nc2ccccc2-c2nc3ccccc3[nH]2)cc1 (centres unmarked) — higher, 15.9%
- CN1C(=O)c2ccc(S(=O)(=O)c3ccc(C(=O)O)cc3)cc2C1=O — lower, 3.09%
- CN1C(=O)[C@@H]2C[C@@]3([C@@]45C[C@H]6C(=O)N(C)[C@@H](Cc7ccccc7)C(=O)N6[C@@H]4Nc4ccccc45)c4ccccc4N[C@H]3N2C(=O)[C@@H]1Cc1ccccc1 — lower, -41.6%
- CC1(C)Cc2c(sc3c2c(=O)n(-c2ccc(Cl)cc2)c(=O)n3CC(N)=O)CO1 — lower, -5.38%
- CCOC(=O)N1CCC(=NNc2ncc(C(F)(F)F)cc2Cl)CC1 — lower, 8.95%
- c1ccc(NCc2cccnc2)cc1 — higher, 12.1%
- CN(C)c1ccc(/C=C/C=N/Nc2nc(N3CCOCC3)nc(N3CCOCC3)n2)cc1 — lower, 0.992%
- O=C(Nc1ccccc1)C1=C[C@H](C2CCCCC2)C[C@H](OCCCCO)O1 — lower, -16.9%
- CC(NC(=O)CSc1nc2sc3c(c2c(=O)n1-c1ccccc1)CCCC3)c1ccccc1 (centres unmarked) — lower, 7.87%
- Cc1nn(-c2ccccc2)c(C)c1C(=O)OC(C)C(=O)NC1CCCCC1C (centres unmarked) — lower, -18%
- CC1CN(C(=O)Cn2c(C(F)(F)F)nc3ccccc32)CC(C)O1 (centres unmarked) — higher, 17.2%
- COCC(C)NCc1cccc2ccccc12.O=C(O)C(=O)O (centres unmarked) — lower, -0.173%
- CCOc1ccc(NC(=O)C(=O)N/N=C/c2cccnc2)cc1 — lower, 5.63%
- Cn1cc(C(=O)N/N=C/C(Br)=C/c2ccccc2)ccc1=O — lower, 5.93%
- CCOc1ccccc1OCCCC(=O)N1CCN(S(=O)(=O)c2ccc(C)cc2)CC1 — lower, -9.22%
- COc1cccc(OCCNC(=O)c2cccc(OC)c2)c1 — lower, -1.4%
- Cc1cc(SCc2ccc([N+](=O)[O-])cc2)nc(=O)[nH]1 — lower, -9.09%
- Cc1ccc(CNC(=O)c2ccc(S(=O)(=O)N(C)C)cc2)n1C — higher, 19.8%
- COc1cc(/C=N/NC(=O)c2ccc(O)cc2)ccc1OCC(=O)N1CC(C)OC(C)C1 (centres unmarked) — lower, 2.48%
- CN(C)c1ccc(S(=O)(=O)NCC(=O)NCCOc2ccccc2F)cc1[N+](=O)[O-] — lower, -7.99%
- O=C(Nc1cccc(NC(=O)c2ccco2)n1)c1ccco1 — lower, -39.8%
- CCN1C(=O)[C@H]2[C@@H](c3ccc(OC)cc3)N3C(=O)CN(Cc4ccccc4)C(=O)[C@@]3(Cc3ccccc3)[C@H]2C1=O — lower, 2.79%
- CC(=O)c1ccc(N2C(=O)C3C4C=CC(CC4)C3C2=O)cc1 (centres unmarked) — higher, 13.6%
- C=CCN1C(=O)C(O)=C(C(C)=O)C1c1ccccc1F (centres unmarked) — lower, 9.39%
- CCOC(=O)N1CCN(C(=O)C(C)N(c2ccc(Oc3ccccc3)cc2)S(C)(=O)=O)CC1 (centres unmarked) — lower, -45.5%
- CC(C)(C)CC(=O)Nc1cc2c3c(c1)CCC(=O)N3CCC2 — lower, -1.96%
- CCCNC(=O)c1c(C)cc(=O)oc1C — lower, -6.11%
- CCC(c1nnc(SCC(=O)NCCc2ccc(OC)c(OC)c2)n1Cc1ccccc1)N(C)C (centres unmarked) — higher, 26.9%
- O=C(NCCc1ccccc1)c1cccc(N2C(=O)C3CC=CCC3C2=O)c1 (centres unmarked) — lower, -6.15%
- CCOC(=O)C1=NNC2(CC(=O)N(c3cc(C)cc(C)c3)C2=O)C1 (centres unmarked) — higher, 20.6%
- CCCNC(=O)c1nc(C)n(-c2ccc([N+](=O)[O-])cc2)n1 — lower, -30%
- CC(=O)Oc1ccc(/C=C2\N=C(C3CCCCC3)OC2=O)cc1 — higher, 13.6%
- CCOC(=O)C1=C(C)NC(=S)NC1c1ccc(OCC(=O)N2CCCCCC2)cc1 (centres unmarked) — lower, 8.3%
- CCOC(=O)c1[nH]c2ccc(OC)cc2c1NC(=O)CCN1CCCC(C)C1 (centres unmarked) — lower, -36.9%
- O=C(NNC(=O)c1ccccc1O)c1ccc(Br)cc1 — higher, 18.2%
- CCCCOC(=O)N1CCOCCOCCOCCOCC1 — lower, -2.3%
- Cc1ccc(S(=O)(=O)c2cc(C)cc(S(=O)(=O)Nc3ccc(C(=O)O)cc3)c2C)cc1 — lower, 7.06%
- O=C(COC(=O)c1ccncc1)NCCCc1ccccc1 — lower, 8.12%
- COC(=O)c1ccc(C(=O)OC)c(NC2=NS(=O)(=O)c3ccccc32)c1 — lower, -2.09%
- O=C(O)CCCNC(=O)Nc1ccccc1 — higher, 20.6%
- C=CCn1c(SCc2ccc(C#N)cc2)nnc1-c1cccc(Cl)c1 — lower, -72.7%
- O=C(Nc1ccnn1C1CCN(Cc2cccnc2)CC1)c1ccccc1Cl — lower, -37.1%
- CCCCCCOC(=O)C1=C(C)NC(=O)NC1c1ccc(O)cc1 (centres unmarked) — lower, -5.94%
- CCN1CCN(c2ccc(S(=O)(=O)N3CCOCC3)cc2NC(=O)CCOc2ccccc2)CC1 — lower, -30.3%
- O=C(COC(=O)c1c(Cl)cccc1Cl)Nc1ccccc1Br — higher, 12.3%
- CCOc1ccc(NS(=O)(=O)c2ccc(C(=O)NCC3(N(C)C)CCCCC3)cc2)cc1 — lower, -8.13%
- CCNc1cc(S(=O)(=O)C(F)(F)F)ccc1N — lower, -0.436%
- CC(C)CCN(C(=O)c1ccncc1)c1c(N)n(Cc2ccccc2)c(=O)[nH]c1=O — lower, -6.18%
- Cn1cccc1Cc1nnc(SCC(=O)N2CCc3ccccc32)n1-c1ccc(F)cc1 — lower, -8.37%
- C=CCOC(=O)/C(=C\C=C\c1ccccc1)NC(=O)c1ccccc1 — lower, -10.7%
- CC(=O)c1ccc(OCCOc2ccc(Cl)c3cccnc23)cc1 — higher, 10.7%
- CCc1c(-c2ccccc2)[n+](=O)c2c(n1[O-])CCC2 — lower, 9.1%
- CCCc1nc(NCc2ccncc2)c2nnn(Cc3ccccc3F)c2n1 — lower, 4.43%
- CCOC(=O)c1ccc2c(c1)NCc1cccc(OC)c1O2 — higher, 13.4%
- CSc1nsc(SCC(=O)Nc2ccccn2)n1 — higher, 12.9%
- O=C(CCN1C(=O)COc2ccccc21)N1CCN(c2ccccn2)CC1 — lower, -69.3%
- CCn1c(C)nc([N+](=O)[O-])c1Sc1ccc(F)cc1 — lower, 2.98%
- CC1(C)Cc2nc(N)c(=O)sc2C1 — higher, 20.5%
- CC(=O)n1ccnc1 — higher, 16.2%
- CC(=O)c1cc(-c2ccccc2)n(CC(=O)Nc2ccc(C)c(C)c2)c1C — higher, 33.2%
- CC(=O)c1cnc(-c2cccc(Cl)c2)s1 — higher, 14.9%
- CC1CCN(C(=S)c2cn(Cc3ccccc3F)c3ccccc23)CC1 — higher, 14.1%
